Data published in the RNAGym collection of RNA variant scans (doi:10.1073/pnas.2313332121).
This sample is rich in variants without activity.

B1: TPR 5TU (parent)
chain: GGAUCUUCUCGAUCUAACAAAAAAGACAAAUCUGCCACAAAGCUUGAGAGCAUCUUCGGAUGCAGAGGCGGCAGCCUUCGGUGGCGCGAUAGCGCCAACGUUCUCAACUAUGACACGCAAAACGCGUGCUCCGUUGAAUGGAGUUUAUCAUG

Variants of: B1
Test: polymerase ribozyme fitness, log enrichment relative to wild type (log ratio); higher = more active; in vitro selection for triplet polymerase activity
Procedure, shortened: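 A single round of triplicate in vitro selection, including frozen incubation at −7 °C, was applied to PCR-built, transcribed mutant libraries of each subunit of a heterodimeric triplet polymerase ribozyme. Illumina sequencing of input and output libraries retained genotypes with ≥10 input reads and ≥1 read per output. Fitness is the base-2 logarithm of genotype enrichment divided by wild-type enrichment, from inverse-variance-weighted replicate averages.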

For GGAUCUUCUCGAUCUAACAAAAAAGACAAAUCUGCCACAAAGCUUGAGAGCAUCUUCCGAUGUAGAGGCGGCAGCCUUCGGUGGCGCGAUAGCGCCAACGUGCUCUACUAUGACACGCAAAACGCAUGCUCAGUUGAAUGGAGUUUAUCAUG, which “polymerase ribozyme fitness (log ratio)” value is on record?
Its value is ≤ -4.2.

For GGAUCUUCUCGAUCUAACAAAAAAGACAAAUCUGCCACAAAGCUUGAGAGCAUCUUCCGAUGCAGAGGCGGUAGCCUUCGGUGGCGCGAUAGCUCCAACGUCCUCAACUAUGACACGCAAAACGCGUGCUCCGUUGAAAGGAGUUUAUCAUG, which “polymerase ribozyme fitness (log ratio)” value is on record?
Its value is ≤ -4.2.

Which “polymerase ribozyme fitness (log ratio)” value does the source give for GGAUCUUCUCGAUCUAACAAAAAAGACAAAUCUGCCACAAAGCUUGAGAGCAUCUUCCGAUGCAGAGGCGGUAGCCUUCGGUGGCGCGAUAGCGCCAACGGUCUCAACUAUGACACGCAAAACGCGUGCUCCGUUGAAUGGAGUUUAUCAUG here?
The value was 0.371.

For GGAUCUUCUCGAUCUAACAAAAAAGACAAAUCUGCCACAAAGCUUGAGAGCAUCUUCCGAUGCAGAGGCGGCAGGCUUCGGUGGCGCGAUAUCGACAACGUUCUCAACUAUGACACGCUAAACGCGUGCGCCGUUGAAUGGAGUUUAUCAUG, which “polymerase ribozyme fitness (log ratio)” value is on record?
The value was ≤ -4.2.

For GGAUCUUCUCGAUCUAACAAAAAAGACAAAUCUGCCACAAAGCUUGAGAGCAUCUUCCGAUGCAGAGGCGGCAGCCUUGGGUGGCGCGAUAGCGCCAACGUUCUCAUCUAUGACACGCAAAACGCGUGCUCCGAUGAACGGAGUUUAUCAUG, which “polymerase ribozyme fitness (log ratio)” value is on record?
Its value is ≤ -4.2.

With GGAUCUUCUCGAUCUAACAAAAAAGACAAAUCUGCCACAAAGCUUGAGAGCAUCUUCCGAUGCAGAGGCGGCAGCCUUCGGUGGAGCGAUAGCGCCAACGUUCUCAACUAUGACACGCAAAACGCGUGCUCCGUUGAAUGGAGUUAAUCAUG as the variant, how does the “polymerase ribozyme fitness (log ratio)” value read?
Its value is ≤ -4.2.

For GGAUCUUCUCGAUCUAACAAAAAAGACAAAUCUGCCACAAAGCUUGAGAGCAUCUUCCGAUGCAGAGGCGGCAGCCUUCGGUGGUGCGAUAGCGCUAACGUUCUCAACUAUGACACGCAAAACGCGUGCUCCGUUGAAUGGAGUUUAUCCUU, which “polymerase ribozyme fitness (log ratio)” value is on record?
Its value is ≤ -4.2.

Which “polymerase ribozyme fitness (log ratio)” value does the source give for GGAUCUUCUCGAUCUAACAAAAAAGACAAAUCUGCCACAAAGCUUGAGAGCAUCUUCCGAUGCAGAGGCGGCAGCCUUCGGUGGCGCGAUAGUGCCAACCUUCUCAACUAUGACACGCAAAACGAGUGCUCCGUUGAAUGGAGUUUAUCAUG here?
Its value is ≤ -4.2.

Which “polymerase ribozyme fitness (log ratio)” value does the source give for GGAUCUUCUCGAUCUAACAAAAAAGACAAAUCUGCCACAAAGCUUGAGAGCAUCUUCCGAUGCAGAGGCGGCAGCCUUCGGUGGCGCGAUAGCGCAAACGUUCUCAACUAUGACUCGCAAAACGCGUUCUCCGUUGAAUGGAGUUUAUCAUG here?
The value was ≤ -4.2.

With GGAUCUUCUCGAUCUAACAAAAAAGACAAAUCUGCCACAAAGCUUGAGAGCAUCUUCCGAUGCAGAGGCGGCAGCCUUCGGUGGCGCGAUAGCGCGAACGAUAUCAACUAUGACACGCAAAACGCGUGCUCCGUUGAAUGGAGUUUAUCAUG as the variant, how does the “polymerase ribozyme fitness (log ratio)” value read?
Its value is ≤ -4.2.

For GGAUCUUCUCGAUCUAACAAAAAAGACAAAUCUGCCACAAAGCUUGAGAGCAUCUUCCGAUCCAGAGGCGGCUGCCUUCGGUGGCGCGAUAGCACCAACGUUCUCAUCUAUGACACGCAAAACGCGUGCUCCGUUGAAUGGAGAUUAUCAUG, which “polymerase ribozyme fitness (log ratio)” value is on record?
Its value is ≤ -4.2.

For GGAUCUUCUCGAUCUAACAAAAAAGACAAAUCUGCCACAAAGCUUGAGAGCAUCUUCCGAUGCAGAGACGGCAGCCUUCGGUGGCGCGAUAGCUCGAACGUUCUCAACUAUGACACGCAAAACGCGUGCUCCGUUGAAUGGAGUUUAUCAUG, which “polymerase ribozyme fitness (log ratio)” value is on record?
Its value is ≤ -4.2.

Which “polymerase ribozyme fitness (log ratio)” value does the source give for GGAUCUUCUCGAUCUAACAAAAAAGACAAAUCUGCCACAAAGCUUGAGAGCAUCUUCCGAUGCAGAGGCGGCAGCCUUCAGUGGCGCGAUAGCGUCAACGUUCUCAACUAUGACACGCAAAACGCGGGCUCCGUUGAAUGGAGUUUAUGAUG here?
The value was ≤ -4.2.

Which “polymerase ribozyme fitness (log ratio)” value does the source give for GGAUCUUCUCGAUCUAACAAAAAAGACAAAUCUGCCACAAAGCUUGAGAGCAUCUUCCGAUGCAGAGGCGGCAGCCUUCCGUGGCGCGAUAGCGGCAACGUUCUCAACUAUGACGCGCAAAACGCGUGCUCCGUUGAAUGGAGUUUAUCAUG here?
The value was ≤ -4.2.

For GGAUCUUCUCGAUCUAACAAAAAAGACAAAUCUGCCACAAAGCUUGAGAGCAUCUUCCGAUGCAGAGGCGGCAGCCUUCCGUGGCGCGAUAGCGUCAACGUUCUCAACUAUGACACGCAAAACGCGUGCUCCGUUGAAUGGAGUUUAUCAUG, which “polymerase ribozyme fitness (log ratio)” value is on record?
Its value is ≤ -4.2.

For GGAUCUUCUCGAUCUAACAAAAAAGACAAAUCUGCCACAAAGCUUGAGAGCAUCUUCCGAUGCAGAGGCGGCAGCCUUCGGUUGGGCGAUAGCGCCAACGUUCUCAACUAUGACACGCAAAACGCGUGCUCCGUUGAAUGGAGUUUAUCAUG, which “polymerase ribozyme fitness (log ratio)” value is on record?
Its value is -3.33.

Which “polymerase ribozyme fitness (log ratio)” value does the source give for GGAUCUUCUCGAUCUAACAAAAAAGACAAAUCUGCCACAAAGCUUGAGAGCAUCUUCCGAUGCAGAGGCGGCAGCCUUCGGUGGCUCGAUAGCGCCAACGUUCUAAACUAUGACACGCAAAACGCGUGCUCCGUUGAAUGGAGUUUAUCAUG here?
Its value is -2.89.

For GGAUCUUCUCGAUCUAACAAAAAAGACAAAUCUGCCACAAAGCUUGAGAGCAUCUUCCGAUGCAGAGGCGGCAGCCUUCGGUGGCGCUAUAGAGCCAACGUUCUCAGCUAUGACACGCAAAACGCGUGCACCGUUGAAUGGAGUUUAUCAUG, which “polymerase ribozyme fitness (log ratio)” value is on record?
Its value is ≤ -4.2.

Which “polymerase ribozyme fitness (log ratio)” value does the source give for GGAUCUUCUCGAUCUAACAAAAAAGACAAAUCUGCCACAAAGCUUGAGAGCAUCUUCCGAUGCAGAGGCGGCAGCCUUCGGUGGCGCGAUAGCGCCAACGUUCUCAACUAUGACACGCAAAACGCGUGCUCCGUUGAAUGGAGUUUAUCAUA here?
Its value is -2.01.
